No constants are given. Whether binding was seen depends on the method and setting. In cells and extracts the contact can be indirect. Some entries that bind do so weakly or less than the wild type. Where a sequence is shown, tags or fusion partners need not be part of it.

The target of the assay is T1, SBP-Flag Rnd3 (mouse) (UniProt P61588).
T1 sequence: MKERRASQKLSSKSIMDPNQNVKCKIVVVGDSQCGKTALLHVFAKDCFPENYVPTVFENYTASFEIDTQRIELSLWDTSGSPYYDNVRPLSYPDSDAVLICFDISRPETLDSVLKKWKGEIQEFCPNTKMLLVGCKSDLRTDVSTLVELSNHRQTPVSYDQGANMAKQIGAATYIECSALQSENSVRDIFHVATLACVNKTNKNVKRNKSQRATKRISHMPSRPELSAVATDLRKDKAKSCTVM
The assay is described as follows: pull-down; streptavidin (SBP) pull-down from lysates of co-transfected 293T cells, SBP-Flag GTPase as bait; beads 1 h at 4°C, 3 washes, elution with 2 mM biotin; immunoblot for Flag.

B1: Flag-Syx(1–393) (domain or fragment, UniProt Q66T02-1 1-393)
chain: MGTGPGVSGRRAAARPSSELPSPDSQLLWVGGHAHSSDSQVCHHADCQQLHHRGPLNLCETCDSKFHSTLHYDGHVRFDLPPQGSVLARNVSTRSCPPRTSPAADLEEEEEGCTDGKGDRKSAGLKISKKKARRRHTDDPSKECFTLKFDLNVDIETEIVPAMKKKSLGEVLLPVFERKGIALGKVDIYLDQSNTPLSLTFEAYRFGGHYLRVKAKPGDEGKVEQGVKDSKSLSLPALRPSGAGPPVSERVDPQSRRESSLDILAPGRRRKNMSEFLGEAGIPGHEPPAPSSCSLPVGSSGGTSSGINESWKNRAASRFSGFFSSSPSTSAFSREVDKMEQLESKLHAYSLFGLPRMPRRLRFDHDSWEEEEEDDEEDEESSGLRLEDSWREL
In the case of B1, the binding result is “binds”.

B2: Flag-Syx(112–800) (domain or fragment, UniProt Q66T02 112-800)
chain: GCTDGKGDRKSAGLKISKKKARRRHTDDPSKECFTLKFDLNVDIETEIVPAMKKKSLGEVLLPVFERKGIALGKVDIYLDQSNTPLSLTFEAYRFGGHYLRVKAKPGDEGKVEQGVKDSKSLSLPALRPSGAGPPVSERVDPQSRRESSLDILAPGRRRKNMSEFLGEAGIPGHEPPAPSSCSLPVGSSGGTSSGINESWKNRAASRFSGFFSSSPSTSAFSREVDKMEQLESKLHAYSLFGLPRMPRRLRFDHDSWEEEEEDDEEDEESSGLRLEDSWRELTDGHEKLTRRQCHQQEAVWELLHTEVSYIRKLRVITNLFLCCLLNLQESGLLCEVEAERLFSNIPEIAKLHRGLWGSVMVPVLEKARRTRALLQPSDFLKGFKMFGSLFKPYIRYCMEEEGCMEYMRGLLRDNDLFRAYVTWAEKHQQCQRLKLSDMLAKPHQRLTKYPLLLKSVLRKTDDPRTKEAIVTMISSVERFIHHVNTCMRQRQERQRLAGVVSRIDAYEVVEGSNDEVDKLLKEFLHLDLTAPMPGTSPEETRQLLLEGSLRMKEGKDSKMDVYCFLFTDLLLVTKAVKKAERTKVIRPPLLVDKIVCRELRDPGSFLLIYLNEFHSAVGAYTFQASSQALCRSWVDTIYNAQNQLQQLRAQLSAQEHPGSQHLQSLEEEEDEQEEEGEESGTSAASSPT
Consider B2, for which the binding result is listed as “binds”.

B3: Syx(145–216) (domain or fragment, UniProt Q66T02 145-216)
chain: FTLKFDLNVDIETEIVPAMKKKSLGEVLLPVFERKGIALGKVDIYLDQSNTPLSLTFEAYRFGGHYLRVKAK
As for B3, the binding entry was “binds”.

B4: Flag-Syx(1–800) E156A/T157A (domain or fragment, UniProt Q66T02-1 1-800)
chain: MGTGPGVSGRRAAARPSSELPSPDSQLLWVGGHAHSSDSQVCHHADCQQLHHRGPLNLCETCDSKFHSTLHYDGHVRFDLPPQGSVLARNVSTRSCPPRTSPAADLEEEEEGCTDGKGDRKSAGLKISKKKARRRHTDDPSKECFTLKFDLNVDIAAEIVPAMKKKSLGEVLLPVFERKGIALGKVDIYLDQSNTPLSLTFEAYRFGGHYLRVKAKPGDEGKVEQGVKDSKSLSLPALRPSGAGPPVSERVDPQSRRESSLDILAPGRRRKNMSEFLGEAGIPGHEPPAPSSCSLPVGSSGGTSSGINESWKNRAASRFSGFFSSSPSTSAFSREVDKMEQLESKLHAYSLFGLPRMPRRLRFDHDSWEEEEEDDEEDEESSGLRLEDSWRELTDGHEKLTRRQCHQQEAVWELLHTEVSYIRKLRVITNLFLCCLLNLQESGLLCEVEAERLFSNIPEIAKLHRGLWGSVMVPVLEKARRTRALLQPSDFLKGFKMFGSLFKPYIRYCMEEEGCMEYMRGLLRDNDLFRAYVTWAEKHQQCQRLKLSDMLAKPHQRLTKYPLLLKSVLRKTDDPRTKEAIVTMISSVERFIHHVNTCMRQRQERQRLAGVVSRIDAYEVVEGSNDEVDKLLKEFLHLDLTAPMPGTSPEETRQLLLEGSLRMKEGKDSKMDVYCFLFTDLLLVTKAVKKAERTKVIRPPLLVDKIVCRELRDPGSFLLIYLNEFHSAVGAYTFQASSQALCRSWVDTIYNAQNQLQQLRAQLSAQEHPGSQHLQSLEEEEDEQEEEGEESGTSAASSPT
Regarding B4, the binding result is recorded as “binds”.

B5: Flag-Syx(136–800) (domain or fragment, UniProt Q66T02 136-800)
chain: HTDDPSKECFTLKFDLNVDIETEIVPAMKKKSLGEVLLPVFERKGIALGKVDIYLDQSNTPLSLTFEAYRFGGHYLRVKAKPGDEGKVEQGVKDSKSLSLPALRPSGAGPPVSERVDPQSRRESSLDILAPGRRRKNMSEFLGEAGIPGHEPPAPSSCSLPVGSSGGTSSGINESWKNRAASRFSGFFSSSPSTSAFSREVDKMEQLESKLHAYSLFGLPRMPRRLRFDHDSWEEEEEDDEEDEESSGLRLEDSWRELTDGHEKLTRRQCHQQEAVWELLHTEVSYIRKLRVITNLFLCCLLNLQESGLLCEVEAERLFSNIPEIAKLHRGLWGSVMVPVLEKARRTRALLQPSDFLKGFKMFGSLFKPYIRYCMEEEGCMEYMRGLLRDNDLFRAYVTWAEKHQQCQRLKLSDMLAKPHQRLTKYPLLLKSVLRKTDDPRTKEAIVTMISSVERFIHHVNTCMRQRQERQRLAGVVSRIDAYEVVEGSNDEVDKLLKEFLHLDLTAPMPGTSPEETRQLLLEGSLRMKEGKDSKMDVYCFLFTDLLLVTKAVKKAERTKVIRPPLLVDKIVCRELRDPGSFLLIYLNEFHSAVGAYTFQASSQALCRSWVDTIYNAQNQLQQLRAQLSAQEHPGSQHLQSLEEEEDEQEEEGEESGTSAASSPT
With B5, the binding entry is “binds”.

B6: Flag-Syx(77–800) (domain or fragment, UniProt Q66T02 77-800)
chain: RFDLPPQGSVLARNVSTRSCPPRTSPAADLEEEEEGCTDGKGDRKSAGLKISKKKARRRHTDDPSKECFTLKFDLNVDIETEIVPAMKKKSLGEVLLPVFERKGIALGKVDIYLDQSNTPLSLTFEAYRFGGHYLRVKAKPGDEGKVEQGVKDSKSLSLPALRPSGAGPPVSERVDPQSRRESSLDILAPGRRRKNMSEFLGEAGIPGHEPPAPSSCSLPVGSSGGTSSGINESWKNRAASRFSGFFSSSPSTSAFSREVDKMEQLESKLHAYSLFGLPRMPRRLRFDHDSWEEEEEDDEEDEESSGLRLEDSWRELTDGHEKLTRRQCHQQEAVWELLHTEVSYIRKLRVITNLFLCCLLNLQESGLLCEVEAERLFSNIPEIAKLHRGLWGSVMVPVLEKARRTRALLQPSDFLKGFKMFGSLFKPYIRYCMEEEGCMEYMRGLLRDNDLFRAYVTWAEKHQQCQRLKLSDMLAKPHQRLTKYPLLLKSVLRKTDDPRTKEAIVTMISSVERFIHHVNTCMRQRQERQRLAGVVSRIDAYEVVEGSNDEVDKLLKEFLHLDLTAPMPGTSPEETRQLLLEGSLRMKEGKDSKMDVYCFLFTDLLLVTKAVKKAERTKVIRPPLLVDKIVCRELRDPGSFLLIYLNEFHSAVGAYTFQASSQALCRSWVDTIYNAQNQLQQLRAQLSAQEHPGSQHLQSLEEEEDEQEEEGEESGTSAASSPT
In the case of B6, the binding entry is listed as “binds”.

B7: Flag-Syx(162–800) (domain or fragment, UniProt Q66T02 162-800)
chain: AMKKKSLGEVLLPVFERKGIALGKVDIYLDQSNTPLSLTFEAYRFGGHYLRVKAKPGDEGKVEQGVKDSKSLSLPALRPSGAGPPVSERVDPQSRRESSLDILAPGRRRKNMSEFLGEAGIPGHEPPAPSSCSLPVGSSGGTSSGINESWKNRAASRFSGFFSSSPSTSAFSREVDKMEQLESKLHAYSLFGLPRMPRRLRFDHDSWEEEEEDDEEDEESSGLRLEDSWRELTDGHEKLTRRQCHQQEAVWELLHTEVSYIRKLRVITNLFLCCLLNLQESGLLCEVEAERLFSNIPEIAKLHRGLWGSVMVPVLEKARRTRALLQPSDFLKGFKMFGSLFKPYIRYCMEEEGCMEYMRGLLRDNDLFRAYVTWAEKHQQCQRLKLSDMLAKPHQRLTKYPLLLKSVLRKTDDPRTKEAIVTMISSVERFIHHVNTCMRQRQERQRLAGVVSRIDAYEVVEGSNDEVDKLLKEFLHLDLTAPMPGTSPEETRQLLLEGSLRMKEGKDSKMDVYCFLFTDLLLVTKAVKKAERTKVIRPPLLVDKIVCRELRDPGSFLLIYLNEFHSAVGAYTFQASSQALCRSWVDTIYNAQNQLQQLRAQLSAQEHPGSQHLQSLEEEEDEQEEEGEESGTSAASSPT
For B7, the binding entry is listed as “no binding”.

B8: Flag-Syx (381–1033) (domain or fragment, UniProt Q66T02 381-1033)
chain: SSGLRLEDSWRELTDGHEKLTRRQCHQQEAVWELLHTEVSYIRKLRVITNLFLCCLLNLQESGLLCEVEAERLFSNIPEIAKLHRGLWGSVMVPVLEKARRTRALLQPSDFLKGFKMFGSLFKPYIRYCMEEEGCMEYMRGLLRDNDLFRAYVTWAEKHQQCQRLKLSDMLAKPHQRLTKYPLLLKSVLRKTDDPRTKEAIVTMISSVERFIHHVNTCMRQRQERQRLAGVVSRIDAYEVVEGSNDEVDKLLKEFLHLDLTAPMPGTSPEETRQLLLEGSLRMKEGKDSKMDVYCFLFTDLLLVTKAVKKAERTKVIRPPLLVDKIVCRELRDPGSFLLIYLNEFHSAVGAYTFQASSQALCRSWVDTIYNAQNQLQQLRAQLSAQEHPGSQHLQSLEEEEDEQEEEGEESGTSAASSPTILRKSSNSLDSEHCTSDGSTETLAMVVVEPGATLSSPEFEGGPVSSQSDESSLSNTASSVTPTSELLPLGPVDGRSCSMDSAYGTLSPTSLQDFVAPHPVVEPAPVPQTPSPQPSPRLRRRTPVQLLPRPPRLLKSKSEASLLQLLSGTPAARGVPPAPSRSLSELCLISVAPGVRTQRPLQEGGPGWNGPGMCDPCHGPQLSESENRPSHMTGGPADSARRRCREMPSGTMS
As for B8, the binding result is recorded as “no binding”.

B9: Flag-Syx(1–657) (domain or fragment, UniProt Q66T02-1 1-657)
chain: MGTGPGVSGRRAAARPSSELPSPDSQLLWVGGHAHSSDSQVCHHADCQQLHHRGPLNLCETCDSKFHSTLHYDGHVRFDLPPQGSVLARNVSTRSCPPRTSPAADLEEEEEGCTDGKGDRKSAGLKISKKKARRRHTDDPSKECFTLKFDLNVDIETEIVPAMKKKSLGEVLLPVFERKGIALGKVDIYLDQSNTPLSLTFEAYRFGGHYLRVKAKPGDEGKVEQGVKDSKSLSLPALRPSGAGPPVSERVDPQSRRESSLDILAPGRRRKNMSEFLGEAGIPGHEPPAPSSCSLPVGSSGGTSSGINESWKNRAASRFSGFFSSSPSTSAFSREVDKMEQLESKLHAYSLFGLPRMPRRLRFDHDSWEEEEEDDEEDEESSGLRLEDSWRELTDGHEKLTRRQCHQQEAVWELLHTEVSYIRKLRVITNLFLCCLLNLQESGLLCEVEAERLFSNIPEIAKLHRGLWGSVMVPVLEKARRTRALLQPSDFLKGFKMFGSLFKPYIRYCMEEEGCMEYMRGLLRDNDLFRAYVTWAEKHQQCQRLKLSDMLAKPHQRLTKYPLLLKSVLRKTDDPRTKEAIVTMISSVERFIHHVNTCMRQRQERQRLAGVVSRIDAYEVVEGSNDEVDKLLKEFLHLDLTAPMPGTSPEETRQLLL
As to B9, the binding result is on record as “binds”.

(Values after article PMC2928299.)
